This is one part of the list.
How the values were obtained:
Test in all cases: glycan array binding signal (z-score within array); higher = stronger binding
Details in all cases: glycan notation: IUPAC condensed, linker removed
[1] = target: Gal(b1-4)GlcNAc(b1-6)Gal(b1-4)GlcNAc
In short: (§1)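 Glycan array data were curated from 3228 arrays in the Consortium for Functional Glycomics database and kept only where the protein sequence was available. Glycan names were converted to IUPAC-condensed notation, and columns mapping to the same glycan were averaged. The binding signal is a within-array Z-score, averaged across arrays of the same protein sequence at different concentrations or buffers and across linkers. Negative Z-scores can be read as non-binding.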

[2] = target: Gal(b1-4)GlcNAc(b1-6)GalNAc
In short: as §1

[3] = target: Gal(b1-4)GlcNAc(b1-6)[Gal(b1-3)]GalNAc
In short: as §1

[4] = target: Gal(b1-4)GlcNAc(b1-6)[Gal(b1-4)GlcNAc(b1-3)]GalNAc
In short: as §1

Gal(b1-4)GlcNAc6P = target: Gal(b1-4)GlcNAc6P
In short: as §1

Gal(b1-6)Gal = target: Gal(b1-6)Gal
In short: as §1

Gal3S(b1-3)GalNAc = target: Gal3S(b1-3)GalNAc
In short: as §1

Gal3S(b1-3)GlcNAc = target: Gal3S(b1-3)GlcNAc
In short: as §1

[5] = target: Gal3S(b1-3)[Fuc(a1-4)]GlcNAc
In short: as §1

Gal3S(b1-4)Glc = target: Gal3S(b1-4)Glc
In short: as §1

Gal3S(b1-4)Glc6S = target: Gal3S(b1-4)Glc6S
In short: as §1

Gal3S(b1-4)GlcNAc = target: Gal3S(b1-4)GlcNAc
In short: as §1

[6] = target: Gal3S(b1-4)[Fuc(a1-3)]Glc6S
In short: as §1

[7] = target: Gal3S(b1-4)[Fuc(a1-3)]GlcNAc
In short: as §1

[8] = target: Gal3S(b1-4)[Fuc(a1-3)]GlcNAc6S
In short: as §1

Gal3S4S(b1-4)GlcNAc = target: Gal3S4S(b1-4)GlcNAc
In short: as §1

Gal3S6S(b1-4)GlcNAc = target: Gal3S6S(b1-4)GlcNAc
In short: as §1

Gal3S6S(b1-4)GlcNAc6S = target: Gal3S6S(b1-4)GlcNAc6S
In short: as §1

Gal4S(b1-4)GlcNAc = target: Gal4S(b1-4)GlcNAc
In short: as §1

Gal4S6S(b1-4)GlcNAc = target: Gal4S6S(b1-4)GlcNAc
In short: as §1

Gal6P(b1-4)GlcNAc = target: Gal6P(b1-4)GlcNAc
In short: as §1

Gal6S(b1-3)GlcNAc = target: Gal6S(b1-3)GlcNAc
In short: as §1

Gal6S(b1-3)GlcNAc6S = target: Gal6S(b1-3)GlcNAc6S
In short: as §1

Gal6S(b1-4)Glc = target: Gal6S(b1-4)Glc
In short: as §1

Gal6S(b1-4)Glc6S = target: Gal6S(b1-4)Glc6S
In short: as §1

Gal6S(b1-4)GlcNAc = target: Gal6S(b1-4)GlcNAc
In short: as §1

Gal6S(b1-4)GlcNAc6S = target: Gal6S(b1-4)GlcNAc6S
In short: as §1

GalNAc(a1-3)Gal = target: GalNAc(a1-3)Gal
In short: as §1

GalNAc(a1-3)GalNAc = target: GalNAc(a1-3)GalNAc
In short: as §1

[9] = target: GalNAc(a1-3)GalNAc(b1-3)Gal(a1-4)Gal(b1-4)Glc
In short: as §1

[10] = target: GalNAc(a1-3)GalNAc(b1-3)Gal(a1-4)Gal(b1-4)GlcNAc
In short: as §1

GalNAc(b1-3)Gal = target: GalNAc(b1-3)Gal
In short: as §1

[11] = target: GalNAc(b1-3)Gal(a1-4)Gal(b1-4)GlcNAc
In short: as §1

[12] = target: GalNAc(b1-3)Gal(a1-4)Gal(b1-4)GlcNAc(b1-3)Gal(b1-4)Glc
In short: as §1

[13] = target: GalNAc(b1-3)Gal(a1-6)Gal(b1-4)Glc
In short: as §1

GalNAc(b1-3)GalNAc = target: GalNAc(b1-3)GalNAc
In short: as §1

GalNAc(b1-3)GlcNAc = target: GalNAc(b1-3)GlcNAc
In short: as §1

GalNAc(b1-4)Gal(b1-4)Glc = target: GalNAc(b1-4)Gal(b1-4)Glc
In short: as §1

B1: DC-ASGPR-short (Homo sapiens) (protein)
chain: MTRTYENFQYLENKVKVQGFKNGPLPLQSLLQRLRSGPCHLLLSLGLGLLLLVIICVVGFQNSKFQRDLVTLRTDFSNFTSNTVAEIQALTSQGSSLEETIASLKAEVEGFKQERQAVHSEMLLRVQQLVQDLKKLTCQVATLNNNASTEGTCCPVNWVEHQDSCYWFSHSGMSWAEAEKYCQLKNAHLVVINSREEQNFVQKYLGSAYTWMGLSDPEGAWKWVDGTDYATGFQNWKPGQPDDWQGHGLGGGEDCAHFHPDGRWNDDVCQRPYHWVCEAGLGQTSQESH
- glycan array binding signal (z-score) [1]: -0.284
- glycan array binding signal (z-score) [2]: 3.52
- glycan array binding signal (z-score) [3]: 0.112
- glycan array binding signal (z-score) [4]: -0.261
- glycan array binding signal (z-score) (Gal(b1-4)GlcNAc6P): -0.284
- glycan array binding signal (z-score) (Gal(b1-6)Gal): -0.275
- glycan array binding signal (z-score) (Gal3S(b1-3)GalNAc): -0.265
- glycan array binding signal (z-score) (Gal3S(b1-3)GlcNAc): -0.745
- glycan array binding signal (z-score) [5]: -0.259
- glycan array binding signal (z-score) (Gal3S(b1-4)Glc): -0.269
- glycan array binding signal (z-score) (Gal3S(b1-4)Glc6S): -0.268
- glycan array binding signal (z-score) (Gal3S(b1-4)GlcNAc): -0.271
- glycan array binding signal (z-score) [6]: -0.258
- glycan array binding signal (z-score) [7]: -0.267
- glycan array binding signal (z-score) [8]: -0.26
- glycan array binding signal (z-score) (Gal3S4S(b1-4)GlcNAc): -0.279
- glycan array binding signal (z-score) (Gal3S6S(b1-4)GlcNAc): -0.266
- glycan array binding signal (z-score) (Gal3S6S(b1-4)GlcNAc6S): -0.276
- glycan array binding signal (z-score) (Gal4S(b1-4)GlcNAc): -0.289
- glycan array binding signal (z-score) (Gal4S6S(b1-4)GlcNAc): -0.27
- glycan array binding signal (z-score) (Gal6P(b1-4)GlcNAc): -0.27
- glycan array binding signal (z-score) (Gal6S(b1-3)GlcNAc): -0.237
- glycan array binding signal (z-score) (Gal6S(b1-3)GlcNAc6S): -0.289
- glycan array binding signal (z-score) (Gal6S(b1-4)Glc): -0.271
- glycan array binding signal (z-score) (Gal6S(b1-4)Glc6S): -0.268
- glycan array binding signal (z-score) (Gal6S(b1-4)GlcNAc): -0.288
- glycan array binding signal (z-score) (Gal6S(b1-4)GlcNAc6S): -0.279
- glycan array binding signal (z-score) (GalNAc(a1-3)Gal): 2.02
- glycan array binding signal (z-score) (GalNAc(a1-3)GalNAc): 0.823
- glycan array binding signal (z-score) [9]: 0.695
- glycan array binding signal (z-score) [10]: 1.42
- glycan array binding signal (z-score) (GalNAc(b1-3)Gal): 0.55
- glycan array binding signal (z-score) [11]: 6.36
- glycan array binding signal (z-score) [12]: 1.75
- glycan array binding signal (z-score) [13]: 1.25
- glycan array binding signal (z-score) (GalNAc(b1-3)GalNAc): 1.45
- glycan array binding signal (z-score) (GalNAc(b1-3)GlcNAc): 2.85
- glycan array binding signal (z-score) (GalNAc(b1-4)Gal(b1-4)Glc): -0.239
